Measured values published in the RNAGym collection of RNA variant scans (doi:10.7554/elife.90254).
The source gives no read counts; variants with many changes may rest on few reads.

B1: LINE1-mini (parent)
chain: GGCAGAGCUCAACACAGCGUGGCAAAGUGGCUGUGGCUAGACUGCC

Variants of: B1
Assay: self-cleavage, relative activity (ratio to wild type); higher = more cleavage; in vitro, sequencing; the parent is a self-cleaving ribozyme

Row | Variant | self-cleavage
1 | GGCAGAGCUCAAGACAGCGAGGCAAAAUUGAUGUGGCUAGACUGCC [C13G U20A G27A G29U C31A] | 0.05
2 | GGCAGAGCUCAAUACAGCGUGGUAAAUUGGCUGUGGCUAUACUGCC [C13U C23U G27U G40U] | 0.05
3 | GGCAGAGCUCAAUACAGUGUGGCUAAGUGGCGGUGGCUAGACUGCC [C13U C18U A24U U32G] | 0.04
4 | GGCAGAGCUCAAUACAGCGUAGCAAAGUCGCUGUGACUAGAUUGCC [C13U G21A G29C G36A C42U] | 0.57
5 | GGCAGAGCUCAAUACCGCGUGGCAAAGUGGCUGUUGCUAGACUGCC [C13U A16C G35U] | 0.19
6 | GGCAGAGCUCAAGACAGCGUGGCAAAGUGGCUGUGGCUAGACAGCG [C13G U43A C46G] | 0.05
7 | GGCAGAGCUCAAUACAGCGUAGCAAAGUGGCUGUUGCUUGACUGCC [C13U G21A G35U A39U] | 0.32
8 | GGCAGAGCUCAAUACAGCGUGGCAAGGUGGCUGCGGCAAGACUGCC [C13U A26G U34C U38A] | 0
9 | GGCAGAGCUCAAUACGGCGUGGCAAAGUGGCUGUGGCUAGACUGUU [C13U A16G C45U C46U] | 0.02
10 | GGCAGAGCUCAAGACAGCGUGGCAAAGCGCCUGUGGCCAGACUGCC [C13G U28C G30C U38C] | 0.13
11 | GGCAGAGCUCAAGACAGCGUGGCAAAGUGGCUGGGGCUAAACUGCC [C13G U34G G40A] | 0
12 | GGCAGAGCUCAAUACAGCGAGGCAAAGUGGCUCUGGCUAGACUGCC [C13U U20A G33C] | 0.05
13 | GGCAGAGCUCAAUACAGAGUGGCAAAGUGGCUGUGGCUAAUCUGCC [C13U C18A G40A A41U] | 0.01
14 | GGCAGAGCUCAAGACAGCGCGGCAUAGUGGCUGUGGCUAGACUGCC [C13G U20C A25U] | 0.09
15 | GGCAGAGCUCAAUACACCGUGGGAAAGUGGCGGUGGCUAGACUGUC [C13U G17C C23G U32G C45U] | 0.01
16 | GGCAGAGCUCAAUUCAACGUGGCAAAGUGGCUGUAGCUAGACUGCC [C13U A14U G17A G35A] | 0.02
17 | GGCAGAGCUCAAUACAGCGUGGCAAGGUGGCUAUGGCUAGUCUGCC [C13U A26G G33A A41U] | 0.01
18 | GGCAGAGCUCAAUACAGCGUGGCAAAGUGGCGCUGGCUACACUGCC [C13U U32G G33C G40C] | 0.03
19 | GGCAGAGCUCAAUAAAGCGUGGCAAAGUGGCUAUGGAUAGACUGCC [C13U C15A G33A C37A] | 0.24

Row | Variant | self-cleavage
20 | GGCAGAGCUCAAUACAUCGUGGCAUAGUGGCUGUGGCUAGACUGCC [C13U G17U A25U] | 0.03
21 | GGCAGAGCUCAAUACAGUGUGGCAAAGUAGCUGUCGCUAGACUGCC [C13U C18U G29A G35C] | 0.2
22 | GGCAGAGCUCAAUACAGCGUGGCAAUGUGGCUGUGGCUAGACUGCU [C13U A26U C46U] | 0.09
23 | GGCAGAGCUCAAUACAGCGUGGUAAAGUGGCGGUGGCUAGACUGCC [C13U C23U U32G] | 0.12
24 | GGCAGAGCUCAAUACAUCGUGGCAAAGUGGCUGUAGCUAGACUGCC [C13U G17U G35A] | 0.02
25 | GGCAGAGCUCAAUACAGCGUGGCAAAGUAGCUGUGGGUAGACUGCC [C13U G29A C37G] | 0.03
26 | GGCAGAGCUCAAUACAGCGGGGUAGAGUGGCUGUGGCUAGACUGCC [C13U U20G C23U A25G] | 0.01
27 | GGCAGAGCUCAAUACAGCGUGGCUAAGUGUCUGUGGCUAGACUGCC [C13U A24U G30U] | 0.94
28 | GGCAGAGCUCAAUUCAGCAUGGCAAAGUGGCUGUGGCUAGACUGCC [C13U A14U G19A] | 0.08
29 | GGCAGAGCUCAAUACAGCGUGGUAAAGUGGCUGUGGCUAGACUGUC [C13U C23U C45U] | 0.26
30 | GGCAGAGCUCAAUACAGCGUGGCAAAGUGGCUGUCGCUAGACUCCC [C13U G35C G44C] | 0.13
31 | GGCAGAGCUCAACCCCGCGUGGCAAAGUGGCUGUCGCUAGACUGCC [A14C A16C G35C] | 0.05
32 | GGCAGAGCUCAAUGCAGCGUGGCCAAGUGGCUGUGGCUAGACUGCC [C13U A14G A24C] | 0.11
33 | GGCAGAGCUCAAUACAGCGUGGCAAAGUCGCUGUGGUCAGACUGCC [C13U G29C C37U U38C] | 0.03
34 | GGCAGAGCUCAAUACAGCCUGGCAAAGUGGCUGUGGCUAGGGUGCC [C13U G19C A41G C42G] | 0.57
35 | GGCAGAGCUCAAUACAGCGUGGCAAAGUGGCUGUGGUUAGACCCCC [C13U C37U U43C G44C] | 0.04
36 | GGCAGAGCUCAAGACAGCGUGGCAAAGGAGCUUUGGUUAGACUGCC [C13G U28G G29A G33U C37U] | 0.01
37 | GGCAGAGCUCAAGACAGCGCGGCAAAGUGGCUGUUGCUAGACUGCC [C13G U20C G35U] | 0.62
38 | GGCAGAGCUCAAUCCAGCGUGGCAAAGUGGCUGUGGCGAGACUGCC [C13U A14C U38G] | 0.02

Row | Variant | self-cleavage
39 | GGCAGAGCUCAAUACAGCGUGGCAAAGAGGCAGUGGCUAAACUACC [C13U U28A U32A G40A G44A] | 0.02
40 | GGCAGAGCUCAAUACAGCGUGGCAAAGUAGAUGUGGUUAGACUGCC [C13U G29A C31A C37U] | 0.06
41 | GGCAGAGCUCAAUACUGCUUGGCAAAGGGGCUGUGGCUAGACUGCC [C13U A16U G19U U28G] | 0.09
42 | GGCAGAGCUCAAGACAGCGUGGCAAAGCGGCUGUGGCUAGACUGUU [C13G U28C C45U C46U] | 0.11
43 | GGCAGAGCUCAAUACAGCGUGGCAAAUUUGCUGUGGCUAGACUGCC [C13U G27U G29U] | 0.21
44 | GGCAGAGCUCAAUACAGCGCGGCAAAGUGGCUGUGGCCAGACUGCC [C13U U20C U38C] | 0.04
45 | GGCAGAGCUCAAUACAGCGUGGCACAGUGGCUGUUGCUAGAAUGCC [C13U A25C G35U C42A] | 0.03
46 | GGCAGAGCUCAAUACAGCUUAGCAAAGUGUCUCUGGCUAUACUGCC [C13U G19U G21A G30U G33C G40U] | 0.03
47 | GGCAGAGCUCAAUACCGCGUGGCAAAGUGGCUGUGGCUACACUGCC [C13U A16C G40C] | 0.04
48 | GGCAGAGCUCAAUACAGCGUGGCAAAGUAGCUGUGGCUAGAGUGCC [C13U G29A C42G] | 0.03
49 | GGCAGAGCUCAAUACAGCGUGGCAGAGUGGCUGUGUCUAGACUGCA [C13U A25G G36U C46A] | 0.05
50 | GGCAGAGCUCAAUACCGCGUGGCAACGUGGAUGUGGCUAGACUGCC [C13U A16C A26C C31A] | 0
51 | GGCAGAGCUCAAUACAGCGUGGCAAAGUGCCUGUCGCUAGACUGCC [C13U G30C G35C] | 0.14
52 | GGCAGAGCUCAAUACAGCUUGGCACAGUGGUUGUGGGUAGACUGCC [C13U G19U A25C C31U C37G] | 0.01
53 | GGCAGAGCUCAAUGCAGGGUGGCAAAGUGGCUGUGGCUAAACUCCC [C13U A14G C18G G40A G44C] | 0.01
54 | GGCAGAGCUCAAUACAGCGUGGCAAAGUGGCUGCGGCUAGACUACC [C13U U34C G44A] | 0.07
55 | GGCAGAGCUCAAUACAGCGUGGCAUAGCGGCGGUGGCUAAACUGUC [C13U A25U U28C U32G G40A C45U] | 0.02
56 | GGCAGAGCUCAAUACAGCGUGGCAAAGUGGAUGUGGCUAGACCGCC [C13U C31A U43C] | 0.03
